Experimental data as given in PubChem BioAssay AID686978 (National Center for Advancing Translational Sciences (NCATS), 2013).
The whole screen tested about 420,000 compounds, of which about 64,000 (15%) were called active. Inconclusive means that the source gave no clear call. Such entries were picked first, then a sample of the others. The call rests on the fitted dose curve; in most records, active means well fitted inhibition curve with a large enough effect; inconclusive means small, poorly fitted or top-dose-only effect; inactive means flat fitted curve, though single readings scatter. No potency is given beside an inconclusive call; the fits are too rough.
On the % scale 0 is the no-effect control and ±100 the full control effect; potency means the concentration at half of the fitted maximal effect; tags describe the fitted curve by direction and shape.

Assay: qHTS for Inhibitors of human tyrosyl-DNA phosphodiesterase 1 (TDP1): qHTS in cells in absence of CPT; further: nearly all actives have a fitted effect of over 55% in size
Details: DT40 Tdp1-/- hTDP1 cells, no CPT, ATP luminescence, 48 h; activity change, negative = growth inhibition: at 46.2 µM (top of the series) unless noted
In short: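 Compound effects on proliferation are scored in DT40 Tdp1-/-;hTDP1 cells in the absence of CPT. ATP levels (CellTiter-Glo luminescence) are recorded after a ≥48 hr, 37 °C incubation.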
With `O=C(NC1(C(F)(F)F)Oc2ccccc2O1)N1CCCC1` the Potency was inconclusive [inhibitor, single point].
With `CCCN(C)C[C@@H]1Oc2ncc(Br)cc2C(=O)N([C@@H](C)CO)C[C@H]1C` the “activity change, negative = growth inhibition” value was inactive: -20.2%.
With `CN(C(=O)COc1ccc(Cl)cc1Cl)c1nnc(C23CC4CC(CC(C4)C2)C3)s1` the Potency was inconclusive [inhibitor, single point].
With `CCOC(=O)C1=C(c2ccc(OC)cc2)C(=O)c2ccccc2C1=O` the Potency was active: 1.46 µM.
With `CCOc1ccccc1NC(=O)C1CCCN(S(=O)(=O)c2ccc3c(c2)CCCN3C(C)=O)C1` (stereo not given) the Potency was active: 14.6 µM.
In the case of `Cc1ccc2c(CSc3nc4ccccc4c(=O)n3CCCO)cc(=O)oc2c1`, the Potency is reported as inconclusive [inhibitor, partial curve, poor fit].
For `CSc1ccccc1NC(=O)Nc1cccc2ccccc12`, the “activity change, negative = growth inhibition” value was inactive: 5%.
For `COc1ccc(OC)c(CCNC(=O)C(C)n2nc(C)c3c(C)n(-c4ccc(C)cc4)nc3c2=O)c1` (stereo not given), the Potency was active: 18.4 µM.
With `COc1ccccc1CNc1ncnc2nc[nH]c12` the Potency was inconclusive [inhibitor, single point].
For `O=C(C=Cc1ccccc1)c1cc(Br)ccc1O`, the Potency was inconclusive [inhibitor, single point].
For `CCn1c(=O)[nH]c2cc(C(=O)Nc3cc(C)cc(C)c3)ccc2c1=O`, the Potency was inconclusive [inhibitor, single point].
In the case of `COC(=O)c1cc(-c2cccc([N+](=O)[O-])c2)c2c(=O)[nH]c(=O)n(C)c2n1`, the Potency is reported as inconclusive [inhibitor, partial curve].
In the case of `CCOC(=O)CSc1nnc(C)c(=O)[nH]1`, the Potency is reported as inconclusive [inhibitor, full curve].
For `CN(C)CCCn1cnc2c(c1=N)C(c1ccccc1)c1ccc3ccccc3c1O2` (stereo not given), the Potency was inconclusive [inhibitor, full curve].
With `Cc1cccc(C)c1OCC(=O)Nc1cccc(S(=O)(=O)N2CCCC2)c1` the Potency was active: 13 µM.
For `CCOc1cc(NC(=S)NCCCN2CCOCC2)c(OCC)cc1NC(=O)c1ccc(C)cc1`, the Potency was inconclusive [inhibitor, single point].
In the case of `COc1ccccc1CCN1CCCC(CN(C)Cc2ccc(OCCO)cc2)C1` (stereo not given), the Potency is reported as inconclusive [inhibitor, partial curve].
In the case of `CCCCNC(=O)CNC(=S)N(Cc1ccccc1)Cc1cccs1`, the Potency is reported as inconclusive [inhibitor, single point].
In the case of `Cc1nc2cc3nc(C(F)(F)F)[nH]c3cc2[nH]1`, the Potency is reported as inconclusive [inhibitor, single point].
In the case of `Cc1cc(NC(=O)COC(=O)c2oc3c(ccc4ccccc43)c2C)no1`, the Potency is reported as active: 16.4 µM.
In the case of `CC(=O)Nc1ccc2nc(NC(=O)CCc3ccccc3)sc2c1`, the Potency is reported as inconclusive [inhibitor, single point].
For `CCOC(=O)c1c(N)sc2c1CCSC2`, the Potency was inconclusive [inhibitor, single point].
In the case of `CN(C)C(=O)c1cccc(-c2cnc3c(NC=O)cc(-c4cc(F)c(F)c(F)c4)cn23)c1`, the Potency is reported as inconclusive [inhibitor, single point].
With `C/C(CCC12CC3CC(CC(C3)C1)C2)=N\NC(N)=S` the Potency was active: 16.4 µM.
With `O=C(COC(=O)C12CC3CC(CC(O)(C3)C1)C2)Nc1ccc(Cl)c(S(=O)(=O)N2CCOCC2)c1` the Potency was inconclusive [inhibitor, partial curve].
For `COc1ccc(S(=O)(=O)N(CC(=O)NCC2CCCO2)c2ccc(Cl)cc2)cc1` (stereo not given), the “activity change, negative = growth inhibition” value was inactive: -25.1%.
With `O=C1NC[C@@H](CCCCN2CCN(CCc3ccc(O)cc3)C(=O)C2=O)N(CCC2CCCCC2)C1=O` the “activity change, negative = growth inhibition” value was inactive: 1.59%.
With `CC1(C)C2CCC1(C)C1(C2)NC(=O)c2ccccc2O1` (stereo not given) the “activity change, negative = growth inhibition” value was inactive: -27.7%.
For `Cc1ccc(S(=O)(=O)Oc2ccccc2[N+](=O)[O-])cc1`, the Potency was inconclusive [inhibitor, partial curve, poor fit].
In the case of `CCc1ccc(S(=O)(=O)c2nnn3c2nc(Nc2cccc(C)c2C)c2sccc23)cc1`, the Potency is reported as active: 20.6 µM.
For `CCN(CC)S(=O)(=O)c1ccc2c(c1)N(CC(=O)N1CCCC1)C(=O)CO2`, the “activity change, negative = growth inhibition” value was inactive: -7.57%.
In the case of `CC1(c2nnc(-c3ccc(F)cc3)o2)CC(c2c(Cl)cccc2Cl)=NO1` (stereo not given), the Potency is reported as inconclusive [inhibitor, single point].
In the case of `COc1cc(-c2nnc(SCC(=O)N3CCCc4ccccc43)o2)cc(OC)c1OC`, the Potency is reported as active: 23.1 µM.
In the case of `CCCCCC(=O)Nc1c(-c2ccc(OC)cc2)c(=O)c2ccccc2n1C`, the “activity change, negative = growth inhibition” value is reported as inactive: 9.43%.
With `CCCNC(=O)COC(=O)c1ccccc1OCc1ccc(Cl)cc1` the Potency was inconclusive [inhibitor, partial curve].
With `COc1ccc(N(CC(=O)Nc2ccc(Cl)cc2C)S(=O)(=O)c2ccccc2)c(OC)c1` the Potency was active: 18.4 µM.
In the case of `COc1ccc(CCNc2ccc(N3C(=O)CC(C)C3=O)cc2[N+](=O)[O-])cc1` (stereo not given), the Potency is reported as inconclusive [inhibitor, single point].
With `COc1ccc(-c2[nH]ncc2/C=N\NC(=O)c2ccc(C(C)(C)C)cc2)cc1OC` the Potency was active: 25.9 µM.
For `Cc1nc(SCC(=O)N2CCN(c3ccccc3)CC2)c2oc3ccccc3c2n1`, the Potency was inconclusive [inhibitor, single point].
With `O=C(Nc1ccc(N2CCOCC2)cc1)c1ccc(Cl)c(S(=O)(=O)N2CCCC2)c1` the Potency was active: 20.6 µM.
For `CCCc1c(C)nc(N2CCN(c3ccc(F)cc3)CC2)[nH]c1=O`, the Potency was inconclusive [inhibitor, single point].
In the case of `COc1ccc(C(=O)C2CCCN(C(=O)c3cccs3)C2)cc1F` (stereo not given), the Potency is reported as inconclusive [inhibitor, single point].
With `COc1cccc(CNc2nc(NCc3cccs3)nc3ccsc23)c1` the Potency was active: 10.3 µM.
With `CC(=O)Oc1ccccc1C(=O)NC(C)CCc1ccccc1` (stereo not given) the Potency was inconclusive [inhibitor, single point].
With `COc1ccccc1N(CC(=O)N(CC(C)C)CC(C)C)S(=O)(=O)c1cccs1` the Potency was inconclusive [inhibitor, single point].
